In all, about 130,000 compounds went through this assay and about 550 (0.42%) were called active. The inconclusive results got no clear call from the source; some entries with a clear call stand among them for comparison. Calls come from the whole dose curve; as a rule, active = well fitted inhibition curve with a large enough effect; inconclusive = small, poorly fitted or top-dose-only effect, or effect the other way; inactive = flat fitted curve, though single readings scatter. No potency is given beside an inconclusive call; the fits are too rough.
Assay: qHTS Assay for Inhibitors of the ERK Signaling Pathway using a Homogeneous Screening Assay; Stimulation with EGF; note: nearly all actives have a fitted effect of over 55% in size
Conditions: HEK293-V1b, EGF-stimulated phospho-ERK AlphaScreen
Procedure, shortened: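 Homogeneous cell-based phospho-ERK assay: HEK293/V1b cells in 1% FBS, compound 30 min then EGF 5 min, AlphaScreen luminescence. Activity normalized between DMSO and 25 nM EGF controls; AC50 from Hill modelling.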
With `C=CC(C1=CC(=O)C(OC)=CC1=O)c1ccccc1` (stereo unspecified) the Potency was “inactive”.
For `CCCn1c(N2CCN(Cc3ccc(Cl)cc3)CC2)nc2ccccc21`, the Potency was inconclusive [inhibitor, single point].
For `COC(=O)c1ccc(C(NC(=O)OCc2ccccc2)/C(=C/[C@@H](C)C(=O)N(C)Cc2cccnc2)c2cccnc2)cc1` (stereo partly specified), the Potency was “inactive”.
For `Cc1cccc(C)c1NC(=O)c1cc(-c2ccccn2)nc2ccccc12`, the Potency was inconclusive [inhibitor, single point].
With `CC(C)NC(=S)N/N=C/c1cc(Br)ccc1O` the Potency was inconclusive [inhibitor, single point].
With `COc1ccc(Cc2nnc(NC(=O)c3cc(OC)c(OC)c(OC)c3)s2)cc1OC` the Potency was “inactive”.
With `Cc1cccc(CNc2ncnc3ccc(-c4ccoc4)cc23)c1` the Potency was inconclusive [inhibitor, single point].
With `Cn1cccc1C(=O)N1CCC2(CCCN(c3ccccc3)C2)CC1` the Potency was “inactive”.
In the case of `O=C(NCc1cccnc1)c1ccc(COc2ccc(Cl)cc2Cl)o1`, the Potency is reported as “inactive”.
With `CCC(=O)OCCNc1cc(Sc2nc3ccccc3[nH]2)c2nonc2c1[N+](=O)[O-]` the Potency was inconclusive [inhibitor, single point].
For `Cc1ccc(NC(=S)NCc2ccc(S(N)(=O)=O)cc2)c(C)c1`, the Potency was inconclusive [activator, full curve, poor fit].
For `Cc1[nH]n(-c2ncc(-c3ccc(Cl)cc3)s2)c(=O)c1C(c1ccc(Cl)cc1)C(C#N)C#N` (stereo unspecified), the Potency was inconclusive [inhibitor, single point].
With `Cc1nc(N2CCCCC2)c2c(C)c(C(=O)Nc3cccc(C(F)(F)F)c3)sc2n1` the Potency was inconclusive [inhibitor, partial curve].
With `NNC(=O)c1ccc(N2CCCCCC2)c([N+](=O)[O-])c1` the Potency was inconclusive [inhibitor, partial curve, poor fit].
With `c1ccc(CCNc2nc(-c3ccncc3)nc3ccccc23)cc1` the Potency was inconclusive [inhibitor, single point].
For `CCn1cc(CN2CCc3c([nH]c4ccccc34)C2c2cccc(OC)c2)c(C)n1` (stereo unspecified), the Potency was inconclusive [inhibitor, partial curve, poor fit].
For `COc1ccc2c(c1)CCc1cn3nc(C)cc3nc1-2`, the Potency was inconclusive [activator, partial curve].
For `COc1ccc(NC(=O)c2cc3n(n2)C(C(F)(F)F)CC(c2ccc4c(c2)OCO4)N3)cc1OC` (stereo unspecified), the Potency was inconclusive [inhibitor, single point].
With `COc1ccc(-n2nc([N+](=O)[O-])c(=NCCc3ccc(C)cc3)n2O)cc1` the Potency was inconclusive [inhibitor, partial curve].
For `COc1ccc(/C=N/Nc2cc(N3CCCC3)nc(N3CCCC3)n2)cc1`, the Potency was “inactive”.
With `Cc1cc(C)nc(S/C=C/C(=O)c2ccccc2F)n1` the Potency was active: 28.2 µM.
For `O=C1c2ccccc2C(=O)c2cc(S(=O)(=O)Nc3ccccc3)ccc21`, the Potency was inconclusive [inhibitor, partial curve].
In the case of `S=C(NCC1CCCO1)N1CCN(c2nc(-c3ccc(Cl)cc3)cs2)CC1` (stereo unspecified), the Potency is reported as inconclusive [inhibitor, single point].
With `CCN1CCCc2cc(CN(CCN3CCOCC3)C(=S)Nc3ccccc3OC)ccc21` the Potency was inconclusive [inhibitor, single point].
For `COC(=O)CCC(C)C1CCC2C3C(O)C[C@@H]4CC(O)CC[C@@]4(C)C3CC(O)[C@]12C` (stereo partly specified), the Potency was “inactive”.
For `O=C(NNC(=O)c1ccccc1[N+](=O)[O-])Nc1ccccc1C(F)(F)F`, the Potency was “inactive”.
With `CCOC(=O)CNc1oc(-c2ccccc2)nc1-c1ccccc1` the Potency was “inactive”.
In the case of `N=C(N)c1ccc(N2CCN(C3CCN(CC(=O)O)CC3)CC2)cc1`, the Potency is reported as “inactive”.
With `CC(C)C[C@@H](CC(=O)N[C@H](CC(=O)N[C@@H]1CCNC[C@H]1C(=O)N[C@H](CC(=O)N[C@@H](CCC(=O)O)CC(=O)O)Cc1ccccc1)C(C)C)NC(=O)[C@@H]1CCCC[C@H]1N` the Potency was “inactive”.
In the case of `NS(=O)(=O)c1ccc(N=Nc2c[nH]c(=O)c(O)c2)cc1`, the Potency is reported as inconclusive [inhibitor, partial curve].
For `CC(=O)[C@H](CC(C)C)NC(=O)[C@@H](CC(C)C)NC(=O)[C@H](CC(C)C)NC(=O)OCc1ccccc1`, the Potency was “inactive”.
With `Cc1occc1C(=O)N/N=C/C(Br)=C\c1ccccc1` the Potency was inconclusive [inhibitor, partial curve, poor fit].
With `COc1ccccc1C1(O)CCN(CC(=O)Nc2nc(-c3ccccc3)cs2)CC1` the Potency was inconclusive [inhibitor, partial curve].
With `C#CCOCCOCCOCCNc1nc(N2CCN(C(=O)[C@H]([C@@H](C)CC)n3cc(CCCN=C(N)N)nn3)CC2)nc(N2CCN(C(=O)[C@H]([C@@H](C)CC)n3cc(CCCN=C(N)N)nn3)CC2)n1` the Potency was inconclusive [inhibitor, single point].
In the case of `O=C(OCC#CCSc1nc2ccccc2o1)c1cc2ccccc2o1`, the Potency is reported as inconclusive [activator, single point].
In the case of `CC1=NN(c2ccccc2)C(=O)/C1=C\c1cn(-c2ccccc2)nc1C`, the Potency is reported as inconclusive [inhibitor, partial curve].
For `CC(=O)N(C(C)=O)c1nc(-c2ccccc2)cn1/N=C/c1cccc([N+](=O)[O-])c1`, the Potency was inconclusive [inhibitor, single point].
In the case of `CCc1ccc2c(c1)C(=O)c1ccccc1C2=O`, the Potency is reported as inconclusive [inhibitor, partial curve].
In the case of `Cc1ccc(C(=O)NCCOc2cccc3cccnc23)cc1Cl`, the Potency is reported as inconclusive [inhibitor, single point].
In the case of `O=C(Nc1ccc(N2CCOCC2)c(Cl)c1)c1cc2ccccc2o1`, the Potency is reported as inconclusive [inhibitor, single point].
In the case of `S=C(c1ccc(-c2ccccc2Cl)o1)N1CCCCC1`, the Potency is reported as inconclusive [inhibitor, partial curve].
With `c1ccc(C2=Nc3c(ccc4ccccc34)C(c3ccncc3)=NN2)cc1` the Potency was inconclusive [inhibitor, partial curve, poor fit].
For `CC(C)(C)OC(=O)[C@H](Cc1ccccc1)NC(=O)c1nc[nH]c1C(=O)NC1CCN(C(=O)OC(C)(C)C)CC1`, the Potency was inconclusive [inhibitor, single point].
With `O=[N+]([O-])c1ccc(Nc2nc(NC3CCCCC3)nc(N3CCCC3)n2)cc1` the Potency was inconclusive [inhibitor, partial curve].
In the case of `C=CCSSSCC=C`, the Potency is reported as “inactive”.
For `CCOC(=O)Cc1csc(NC(=O)/C=C/c2cccc(Br)c2)n1`, the Potency was inconclusive [inhibitor, single point].
With `CC(C)C1Cc2c(sc3c2c(=O)n(-c2ccccc2)c2n[nH]c(=S)n32)CO1` (stereo unspecified) the Potency was “inactive”.
With `C[C@@H]1NC(=O)c2cc([N+](=O)[O-])cc(I)c2NCCCC[C@@H](C(N)=O)NC(=O)[C@H](CC(N)=O)NC1=O` the Potency was inconclusive [inhibitor, partial curve].
With `Cc1cccc(OCC(=O)Nc2ccc3nc(C)sc3c2)c1` the Potency was inconclusive [inhibitor, single point].
In the case of `CN(C)c1ccc(NC(=O)c2ccc3c(c2)nnn3C)cc1`, the Potency is reported as inconclusive [inhibitor, single point].
With `O=C(COc1ccc([N+](=O)[O-])cc1)NCc1cccnc1` the Potency was “inactive”.
With `Cc1ccnn1CCC(=O)O` the Potency was inconclusive [inhibitor, full curve, poor fit].
With `COc1ccc(/C=C/C(=O)c2ccc(O)cc2O)cc1` the Potency was “inactive”.
For `COc1ccc(C(=O)/C=C/C(=O)N(CC(=O)NC2CCCCC2)CC2CCCO2)c(O)c1` (stereo unspecified), the Potency was inconclusive [inhibitor, single point].
For `COC(=O)CCCC1=CC2=C(c3ccccc3)C(=O)C(C)(OC(=O)C3CCCC3)C(=O)C2=CN1c1ccc(OC)cc1` (stereo unspecified), the Potency was inconclusive [inhibitor, single point].
In the case of `Cc1ccccc1C(=O)NNC(=S)Nc1cccc(C(F)(F)F)c1`, the Potency is reported as “inactive”.
With `COc1ccc(N=Nc2cc(C)c(O)c(CN3CCCCC3)c2)cc1` the Potency was inconclusive [inhibitor, partial curve].
With `O=C1c2ccccc2-c2n[nH]c(=O)c3ccc(N4CCCCC4)c1c23` the Potency was inconclusive [inhibitor, partial curve].
In the case of `CCCCC/C=C\C/C=C\C=C\[C@@H](O)C/C=C\CCCC(=O)O`, the Potency is reported as “inactive”.
For `O=C(Nc1ccc(Cl)cc1)N(Cc1nc2ccccc2c(=O)[nH]1)Cc1cccs1`, the Potency was inconclusive [inhibitor, single point].
For `Cc1ccc(CNC(=O)COc2ccccc2-c2ccccc2)cc1`, the Potency was “inactive”.
For `C=CCOC(=O)N[C@H](/C(C(=O)OC)=C(\C)NCc1ccccc1)c1cccc(C(F)(F)F)c1`, the Potency was “inactive”.
With `COc1ccc(NC(=O)N2CCC3(CC2)CCN(S(C)(=O)=O)CC3)cc1` the Potency was “inactive”.
In the case of `O=[N+]([O-])c1cc(/C=N\Nc2nc(-c3ccccc3)cs2)ccc1O`, the Potency is reported as inconclusive [inhibitor, partial curve].
In the case of `COc1ccccc1NC(=O)c1cnc(Nc2ccccc2OC)c2ccccc12`, the Potency is reported as inconclusive [activator, partial curve].
With `Cc1cc2ccccn2c1C(=S)NC(=O)c1ccccc1` the Potency was inconclusive [inhibitor, partial curve].
Potency is the fitted concentration of half-maximal effect; tags give direction and shape of the fitted curve.
